# Reference: the supplement of paper PMC8728848
# The list shows a part of the results.
# B1: HML-Native (Hypnea musciformis), P84871 (protein)
# chain: QKFCTLDIAPVCCQIVIGGGMYTAGNACMCEGFVSGVGRCENPKECPCTREAQIPSCCSSRWGLVSVTGKCACDCLGGTVAFPEPCPSPY
# Columns and labels:
# Assay in all cases: glycan array binding signal (z-score within array); higher = stronger binding
# Conditions in all cases: glycan notation: IUPAC condensed, linker removed
# [1] = target: Gal(b1-4)GlcNAc(b1-2)Man(a1-6)[GlcNAc(b1-2)Man(a1-3)]Man(b1-4)GlcNAc(b1-4)GlcNAc
# Summary of the method: (§1)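 Glycan array data were curated from 3228 arrays in the Consortium for Functional Glycomics database and kept only where the protein sequence was available. Glycan names were converted to IUPAC-condensed notation, and columns mapping to the same glycan were averaged. The binding signal is a within-array Z-score, averaged across arrays of the same protein sequence at different concentrations or buffers and across linkers. Negative Z-scores can be read as non-binding.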
# [2] = target: Gal(b1-4)GlcNAc(b1-2)Man(a1-6)[Man(a1-3)]Man(b1-4)GlcNAc(b1-4)GlcNAc
# Summary of the method: as §1
# [3] = target: Gal(b1-4)GlcNAc(b1-2)[Gal(b1-4)GlcNAc(b1-4)]Man(a1-3)[Gal(b1-4)GlcNAc(b1-2)Man(a1-6)]Man(b1-4)GlcNAc(b1-4)GlcNAc
# Summary of the method: as §1
# [4] = target: Gal(b1-4)GlcNAc(b1-2)[Gal(b1-4)GlcNAc(b1-4)]Man(a1-3)[Gal(b1-4)GlcNAc(b1-2)[Gal(b1-4)GlcNAc(b1-6)]Man(a1-6)]Man(b1-4)GlcNAc(b1-4)GlcNAc
# Summary of the method: as §1
# [5] = target: Gal(b1-4)GlcNAc(b1-2)[Gal(b1-4)GlcNAc(b1-4)]Man(a1-3)[GlcNAc(b1-4)][Gal(b1-4)GlcNAc(b1-2)Man(a1-6)]Man(b1-4)GlcNAc(b1-4)GlcNAc
# Summary of the method: as §1
# [6] = target: Gal(b1-4)GlcNAc(b1-2)[Gal(b1-4)GlcNAc(b1-4)]Man(a1-3)[GlcNAc(b1-4)][Gal(b1-4)GlcNAc(b1-2)[Gal(b1-4)GlcNAc(b1-6)]Man(a1-6)]Man(b1-4)GlcNAc(b1-4)GlcNAc
# Summary of the method: as §1
# [7] = target: Gal(b1-4)GlcNAc(b1-2)[Gal(b1-4)GlcNAc(b1-6)]Man(a1-6)[Gal(b1-4)GlcNAc(b1-2)Man(a1-3)]Man(b1-4)GlcNAc(b1-4)GlcNAc
# Summary of the method: as §1
# [8] = target: Gal(b1-4)GlcNAc(b1-2)[Gal(b1-4)GlcNAc(b1-6)]Man(a1-6)[Gal(b1-4)GlcNAc(b1-2)Man(a1-3)]Man(b1-4)GlcNAc(b1-4)[Fuc(a1-6)]GlcNAc
# Summary of the method: as §1
# [9] = target: Gal(b1-4)GlcNAc(b1-2)[Gal(b1-4)GlcNAc(b1-6)]Man(a1-6)[GlcNAc(b1-4)][Gal(b1-4)GlcNAc(b1-2)Man(a1-3)]Man(b1-4)GlcNAc(b1-4)GlcNAc
# Summary of the method: as §1
# [10] = target: Gal(b1-4)GlcNAc(b1-2)[Gal(b1-4)GlcNAc(b1-6)]Man(a1-6)[GlcNAc(b1-4)][Gal(b1-4)GlcNAc(b1-2)[Gal(b1-4)GlcNAc(b1-4)]Man(a1-3)]Man(b1-4)GlcNAc(b1-4)[Fuc(a1-6)]GlcNAc
# Summary of the method: as §1
# [11] = target: Gal(b1-4)GlcNAc(b1-3)Gal(b1-3)GalNAc
# Summary of the method: as §1
# [12] = target: Gal(b1-4)GlcNAc(b1-3)Gal(b1-3)GlcNAc
# Summary of the method: as §1
# [13] = target: Gal(b1-4)GlcNAc(b1-3)Gal(b1-4)Glc
# Summary of the method: as §1
# [14] = target: Gal(b1-4)GlcNAc(b1-3)Gal(b1-4)GlcNAc
# Summary of the method: as §1
# [15] = target: Gal(b1-4)GlcNAc(b1-3)Gal(b1-4)GlcNAc(b1-2)Man(a1-3)[Gal(b1-4)GlcNAc(b1-3)Gal(b1-4)GlcNAc(b1-2)Man(a1-6)]Man(b1-4)GlcNAc(b1-4)GlcNAc
# Summary of the method: as §1
# [16] = target: Gal(b1-4)GlcNAc(b1-3)Gal(b1-4)GlcNAc(b1-2)Man(a1-3)[Gal(b1-4)GlcNAc(b1-3)Gal(b1-4)GlcNAc(b1-2)Man(a1-6)]Man(b1-4)GlcNAc(b1-4)[Fuc(a1-6)]GlcNAc
# Summary of the method: as §1
# [17] = target: Gal(b1-4)GlcNAc(b1-3)Gal(b1-4)GlcNAc(b1-2)[Gal(b1-4)GlcNAc(b1-3)Gal(b1-4)GlcNAc(b1-6)]Man(a1-6)[Gal(b1-4)GlcNAc(b1-3)Gal(b1-4)GlcNAc(b1-2)Man(a1-3)]Man(b1-4)GlcNAc(b1-4)GlcNAc
# Summary of the method: as §1
# [18] = target: Gal(b1-4)GlcNAc(b1-3)Gal(b1-4)GlcNAc(b1-2)[Gal(b1-4)GlcNAc(b1-3)Gal(b1-4)GlcNAc(b1-6)]Man(a1-6)[Gal(b1-4)GlcNAc(b1-3)Gal(b1-4)GlcNAc(b1-2)Man(a1-3)]Man(b1-4)GlcNAc(b1-4)[Fuc(a1-6)]GlcNAc
# Summary of the method: as §1
# [19] = target: Gal(b1-4)GlcNAc(b1-3)Gal(b1-4)GlcNAc(b1-3)Gal(b1-4)GlcNAc
# Summary of the method: as §1
# [20] = target: Gal(b1-4)GlcNAc(b1-3)Gal(b1-4)GlcNAc(b1-3)Gal(b1-4)GlcNAc(b1-2)Man(a1-3)[Gal(b1-4)GlcNAc(b1-3)Gal(b1-4)GlcNAc(b1-3)Gal(b1-4)GlcNAc(b1-2)Man(a1-6)]Man(b1-4)GlcNAc(b1-4)GlcNAc
# Summary of the method: as §1
# [21] = target: Gal(b1-4)GlcNAc(b1-3)Gal(b1-4)GlcNAc(b1-3)Gal(b1-4)GlcNAc(b1-2)Man(a1-3)[Gal(b1-4)GlcNAc(b1-3)Gal(b1-4)GlcNAc(b1-3)Gal(b1-4)GlcNAc(b1-2)Man(a1-6)]Man(b1-4)GlcNAc(b1-4)[Fuc(a1-6)]GlcNAc
# Summary of the method: as §1
# [22] = target: Gal(b1-4)GlcNAc(b1-3)Gal(b1-4)GlcNAc(b1-3)Gal(b1-4)GlcNAc(b1-2)[Gal(b1-4)GlcNAc(b1-3)Gal(b1-4)GlcNAc(b1-3)Gal(b1-4)GlcNAc(b1-6)]Man(a1-6)[Gal(b1-4)GlcNAc(b1-3)Gal(b1-4)GlcNAc(b1-3)Gal(b1-4)GlcNAc(b1-2)Man(a1-3)]Man(b1-4)GlcNAc(b1-4)[Fuc(a1-6)]GlcNAc
# Summary of the method: as §1
binder,measurement,setting,value
B1,glycan array binding signal (z-score),[1],-0.243
same,glycan array binding signal (z-score),[2],-0.238
same,glycan array binding signal (z-score),[3],-0.12
same,glycan array binding signal (z-score),[4],-0.155
same,glycan array binding signal (z-score),[5],-0.209
same,glycan array binding signal (z-score),[6],-0.193
same,glycan array binding signal (z-score),[7],-0.081
same,glycan array binding signal (z-score),[8],4.48
same,glycan array binding signal (z-score),[9],-0.262
same,glycan array binding signal (z-score),[10],-0.041
same,glycan array binding signal (z-score),[11],-0.238
same,glycan array binding signal (z-score),[12],-0.365
same,glycan array binding signal (z-score),[13],-0.207
same,glycan array binding signal (z-score),[14],-0.286
same,glycan array binding signal (z-score),[15],-0.152
same,glycan array binding signal (z-score),[16],5.52
same,glycan array binding signal (z-score),[17],0.072
same,glycan array binding signal (z-score),[18],2.88
same,glycan array binding signal (z-score),[19],-0.179
same,glycan array binding signal (z-score),[20],-0.215
same,glycan array binding signal (z-score),[21],4.93
same,glycan array binding signal (z-score),[22],2.23
